# Viability of KB3-1 and Nalm-6 cells after 48 h of drug alone (CellTiter-Glo), 11 doses over about 4.5 log units. % of DMSO wells, lower = more cell loss; AC50 from the fitted curve, lower = more potent. No active / inactive call. Nalm-6 was screened in two runs. AC50 is listed only for well-fitted inhibitory curves. KB3-1 is a HeLa-derived carcinoma line, Nalm-6 a B-cell precursor leukaemia line.
# Legend:
# Nalm-6 = test: viability (% of DMSO control); higher = more viable cells
# Method: (§1)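 Eleven-dose screen of the NCATS MIPE 3 library on cells without co-treatment; CellTiter-Glo after 48 h, as % of DMSO wells.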
# KB3-1 = test: as above
# Method: as §1
SMILES,"viability (Nalm-6; run: 1, 0.00078 µM) [%]","viability (Nalm-6; run: 1, 0.00234 µM) [%]","viability (Nalm-6; run: 1, 0.00702 µM) [%]","viability (Nalm-6; run: 1, 0.0211 µM) [%]","viability (Nalm-6; run: 1, 0.0632 µM) [%]","viability (Nalm-6; run: 1, 0.19 µM) [%]","viability (Nalm-6; run: 1, 0.569 µM) [%]","viability (Nalm-6; run: 1, 1.71 µM) [%]","viability (Nalm-6; run: 1, 5.12 µM) [%]","viability (Nalm-6; run: 1, 15.4 µM) [%]","viability (Nalm-6; run: 1, 46.1 µM) [%]","viability (Nalm-6; run: 2, 0.00078 µM) [%]","viability (Nalm-6; run: 2, 0.00234 µM) [%]","viability (Nalm-6; run: 2, 0.00702 µM) [%]","viability (Nalm-6; run: 2, 0.0211 µM) [%]","viability (Nalm-6; run: 2, 0.0632 µM) [%]","viability (Nalm-6; run: 2, 0.19 µM) [%]","viability (Nalm-6; run: 2, 0.569 µM) [%]","viability (Nalm-6; run: 2, 1.71 µM) [%]","viability (Nalm-6; run: 2, 5.12 µM) [%]","viability (Nalm-6; run: 2, 15.4 µM) [%]","viability (Nalm-6; run: 2, 46.1 µM) [%]",viability (KB3-1; 0.00078 µM) [%],viability (KB3-1; 0.00234 µM) [%],viability (KB3-1; 0.00702 µM) [%],viability (KB3-1; 0.0211 µM) [%],viability (KB3-1; 0.0632 µM) [%],viability (KB3-1; 0.19 µM) [%],viability (KB3-1; 0.569 µM) [%],viability (KB3-1; 1.71 µM) [%],viability (KB3-1; 5.12 µM) [%],viability (KB3-1; 15.4 µM) [%],viability (KB3-1; 46.1 µM) [%]
Cn1c(CCCC(=O)O)nc2cc(N(CCCl)CCCl)ccc21 [Bendamustine],104,104,106,109,111,116,106,112,90.8,92.2,107,99.4,105,107,103,103,91.7,104,97.9,101,95.5,95.9,108,104,99.6,99.1,99.5,99.4,99.5,99.3,98.7,98,104
Nc1cccc(S(=O)(=O)N2CCCN(S(=O)(=O)c3ccc4c(c3)OCCO4)CC2)c1,97.9,108,111,115,129,121,118,115,130,108,101,98.8,107,109,105,112,110,109,105,108,101,93.5,103,98,106,100,102,99.9,104,105,101,95.8,91.5
Cn1cc(-c2ccc3nnc(C(F)(F)c4ccc5ncccc5c4)n3n2)cn1,107,112,106,107,113,118,114,87.5,104,103,78,111,115,85.8,105,112,116,110,108,110,102,84.9,106,105,103,95.5,102,93.5,100,103,96,88.2,86.3
Cc1c(CCOc2ccc(C(=O)O)cc2)c2cc(Cl)ccc2n1C(c1ccccc1)c1ccccc1 [CDIBA],120,120,116,115,125,125,121,121,107,126,32.1,110,110,111,105,109,105,106,105,110,110,23.3,100,104,101,103,107,106,103,107,101,101,61.5
